The list shows a part of the results. The full chains were built here from the parent and the listed change. Values near 0.05 are background.
B1: TEV protease; numbered along this chain (parent)
chain: MGESLFKGPRDYNPISSSICHLTNESDGHTTSLYGIGFGPFIITNKHLFRRNNGTLVVQSLHGVFKVKDTTTLQQHLVDGRDMIIIRMPKDFPPFPQKLKFREPQREERICLVTTNFQTKSMSSMVSDTSCTFPSGDGIFWKHWIQTKDGQCGSPLVSTRDGFIVGIHSASNFTNTNNYFTSVPKNFMELLTNQEAQQWVSGWRLNADSVLWGGHKVFMVKPEEPFQPVKEATQL

Variants of: B1
Test: raw area under fraction-flipped curve 0-4 h after induction (AUC4h, not background-subtracted), DNA-recorder readout of cleavage of the substrate (dimensionless); higher = more cleavage of the substrate by the protease variant
Settings: temperature: 34 °C; time window: 0-4 h after rhamnose induction
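Also: Bxb1 expression induced with 0.2% (w/v) L-rhamnose at OD600 near 0.5, cultures sampled hourly, flipped fraction per protease–substrate barcode pair counted by paired-end Illumina sequencing.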

Row | Variant | area with substrate ENLYFQE | area with substrate ENLYFQF | area with substrate ENLYFQG | area with substrate ENLYFQI | area with substrate ENLYFQL | area with substrate ENLYFQM | area with substrate ENLYFQN | area with substrate ENLYFQP | area with substrate ENLYFQR | area with substrate ENLYFQS | area with substrate ENLYFQT | area with substrate ENLYFQV | area with substrate ENLYFQW | area with substrate ENLYFQH | area with substrate ENLYFQK | area with substrate ENLYFQQ | area with substrate ENLYFQY | area with substrate ENLYFQD
1 | MGESLFKGPRDYNPISSSICHLTNESDGHTTSLYGIGFGPFIITNKHLFRRNNGTLVVQSLHGVFKVKDTTTLQQHLVDGRDMGIIRMPKDFPPFPQKLKFREPQREERICLVTTNFQTKSMSSMVSDTSCTFPSGDGIFWKHWIQTKDGQCGSPLVSTRDGFIVGIHSASNFTNTNNYFTSVPKNFMELLTNQEAQQWVSGWRLNADSVLWGGHKVFMVKPEEPFQPVKEATQL [I84G] | 0.0982 | 0.0563 | 0.0616 | 0.0463 | 0.0499 | 0.0552 | 0.0423 | 0.051 | 0.0506 | 0.0669 | 0.0569 | 0.0471 | 0.0528 | – | – | – | – | –
2 | MGESLFKGPRDYNPISSSICHLTNESDGHTTSLYGIGFGPFIITNKHLFRRNNGTLVVQSLHGVFKVKDTTTLQQHLVDGRDMIIIRMPKDFPPFPQKLKFREPQREERICLVTTNFQTKSMSSMVSDTSCTFPSGDGIFWKHWIQTKDGQCGSDLVSTRDGFIVGIHSASNFTNTNNYFTSVPKNFMELLTNQEAQQWVSGWRLNADSVLWGGHKVFMVKPEEPFQPVKEATQL [P155D] | – | 0.0458 | – | 0.0514 | 0.0556 | 0.0462 | 0.053 | – | 0.0587 | 0.0506 | 0.0514 | – | 0.0436 | 0.0379 | 0.0544 | 0.0376 | 0.052 | –
3 | MGESLFKGPRDYNPISSSICHLTNESDGHTTSLYGIGFGPFIITNKHLFRRNNGTLVVQSLHGVFKVKDTTTLQQHLVDGRDMIIIRMPKDFPPFPQKLKFREPQREERICLVTTNFQTKSMSSMVSDTSCTFPSGDGIFWKHWIQTKDGQCGSPLVSTRDGFIVGIHSASNFTNTNNYFTSVPKNFMELLTNQEAQQWVSGWRLNADSVLWGGCKVFMVKPEEPFQPVKEATQL [H215C] | – | – | – | – | 0.0598 | 0.101 | 0.0761 | 0.0463 | 0.0584 | 0.0733 | 0.0489 | – | 0.0532 | 0.0647 | – | – | – | –
4 | MGESLFKGPRDYNPISSSICHLTNESDGHTTSLYGIGFGPFIITNKHLFRRNNGTLVVQSLHGVFKVKDTTTLQQHLVDGRDMIIIRMPKDFPPFPQKLKFREPQREERICLVTTNFQTKSMSSMVSDTYCTFPSGDGIFWKHWIQTKDGQCGSPLVSTRDGFIVGIHSASNFTNTNNYFTSVPKNFMELLTNQEAQQWVSGWRLNADSVLWGGHKVFMVKPEEPFQPVKEATQL [S130Y] | – | – | 0.0801 | 0.0667 | – | 0.0751 | 0.0742 | – | – | 0.0869 | 0.0691 | – | 0.0624 | 0.0795 | – | – | – | 0.0607
5 | MGESLFKGPRDYNPISSSICHLTNESDGHTTSLYGIGFGPFIITNKHLFRRNNGTLVVQSLHGVFKVKDTTTLQQHLVDGRDMIIIRMPKDFPPFPQKLKFREPQREERICLVTTNFQTKSMSSMVSDTSCTFPSGDGIFAKHWIQTKDGQCGSPLVSTRDGFIVGIHSASNFTNTNNYFTSVPKNFMELLTNQEAQQWVSGWRLNADSVLWGGHKVFMVKPEEPFQPVKEATQL [W141A] | 0.0438 | – | – | 0.0462 | 0.0561 | 0.0592 | – | 0.0552 | – | 0.0574 | 0.0585 | – | 0.0561 | 0.0634 | 0.0635 | – | 0.0591 | –
6 | MGESLFKGPRDYNPISSSICHLTNESDGHTTSLYGIGFGPFIITNKHLFRRNNGTLVVQSLHGVFKVKDTTTLQQHLVDGRDMIIIRMPKDFPPFPQKLKFREPQREERICLVTTNFQTKSMSSMVSDTSCTFPSGDGIFWKHWIQTKDGQCGSPLVSTRDGFIVGIHSASNFTNTNNYFTSVPKNFMELLTNQEAQQWVSGWRLNADSVLWGGHKVFMVKPEEPFQPVNEATQL [K230N] | – | – | 0.101 | – | 0.0639 | 0.0862 | – | 0.0582 | 0.07 | 0.102 | 0.065 | – | 0.068 | 0.0775 | 0.0751 | 0.0594 | – | –
7 | MGESLFKGPRDYNPISSSICHLTNESDGHTTSLYGIGFGPFIITNKHLFRRNNGTLVVQSLHGVFKVKDTTTLQQHLVDGRDMIIIRMPKDFPPFPQKLKFREPQRYERICLVTTNFQTKSMSSMVSDTSCTFPSGDGIFWKHWIQTKDGQCGSPLVSTRDGFIVGIHSASNFTNTNNYFTSVPKNFMELLTNQEAQQWVSGWRLNADSVLWGGHKVFMVKPEEPFQPVKEATQL [E107Y] | – | – | 0.138 | 0.0519 | 0.0656 | 0.0903 | 0.0724 | – | 0.0479 | 0.108 | 0.0573 | 0.0527 | 0.0815 | 0.0712 | 0.0441 | – | 0.0786 | 0.0699

Reference: the supplement of paper PMC12217912
